Test results reported in PubChem BioAssay AID624417 (National Center for Advancing Translational Sciences (NCATS), 2012).
Out of some 410,000 compounds screened, about 6,400 (1.6%) were called active. Inconclusive means that the source gave no clear call. Such entries were picked first, then a sample of the others. Calls come from the whole dose curve; as a rule, active = well fitted inhibition curve with a large enough effect; inconclusive = small, poorly fitted or top-dose-only effect; inactive = no such curve, though single readings can be large or run the other way. No potency is given beside an inconclusive call; the fits are too rough.

target: Glucagon-like peptide 1 receptor (Homo sapiens) (UniProt P43220); experiment: qHTS of GLP-1 Receptor Inverse Agonists (Inhibition Mode); settings: HEK293 GLP-1R CRE-luciferase, luminescence, 24 h, GLP-1R form is constitutively active; activity change, negative = inhibition: at 38.3 µM (top of the series) unless noted; note: nearly all actives have a fitted effect of over 55% in size
Method in brief: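 GLP-1R inverse agonism mode: basal reporter luminescence in engineered HEK293 cells measured after one day of compound exposure at 37 deg C, with a 12 min room-temperature detection step.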
% is set by controls: 0 for no effect and ±100 for the full control effect; potency is the fitted concentration of half-maximal effect; tags give direction and shape of the fitted curve.

Chain of UniProt P43220 (P43220 whole entry, looked up): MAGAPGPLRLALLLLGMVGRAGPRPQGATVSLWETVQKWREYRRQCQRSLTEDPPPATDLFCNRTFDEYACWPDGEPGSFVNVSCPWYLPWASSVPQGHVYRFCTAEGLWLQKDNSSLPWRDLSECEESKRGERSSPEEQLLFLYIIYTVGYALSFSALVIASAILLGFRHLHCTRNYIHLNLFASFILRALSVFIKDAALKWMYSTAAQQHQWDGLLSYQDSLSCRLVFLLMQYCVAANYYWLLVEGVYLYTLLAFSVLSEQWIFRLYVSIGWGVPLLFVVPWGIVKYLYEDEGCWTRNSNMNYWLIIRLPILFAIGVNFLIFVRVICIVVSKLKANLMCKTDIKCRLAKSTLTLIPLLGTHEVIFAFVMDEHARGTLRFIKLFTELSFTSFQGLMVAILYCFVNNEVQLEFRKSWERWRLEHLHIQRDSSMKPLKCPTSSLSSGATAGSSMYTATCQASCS

Structure (SMILES)	Potency	activity change, negative = inhibition
O=C(Cn1c(=O)c2cccn2c2cccnc21)N1CCN(c2ccc(Cl)cc2)CC1	inconclusive [inhibitor, single point]	
Cc1ccsc1/C=N/NC(=O)c1ccncc1	inconclusive [inhibitor, single point]	
CCN(c1ccc(NC(=O)COC(=O)c2ccc(C)s2)cc1)C(C)C	inconclusive [inhibitor, single point]	
O=C(Nc1ccc2c(c1)OCCO2)NC1CCCCC1	inconclusive [inhibitor, single point]	
COc1ccc(CC(N)c2csc(NC(=O)c3ccc(F)cc3)n2)cc1 (stereo not drawn)	inconclusive [inhibitor, single point]	
COc1ccc(OC)c(NC(=O)C2(C)CCN2Cc2ccc(OC)c3ccccc23)c1 (stereo not drawn)	inconclusive [inhibitor, single point]	
COc1ccc2c(c1)[C@H]1[C@H](CO2)[C@H](c2ccccc2)[C@]2(C)C(=O)Nc3cc(F)c(F)cc3C(=O)N12	inconclusive [inhibitor, single point]	
CCOC(=O)N/N=C/c1cn(Cc2ccc(F)cc2)c2ccccc12	inconclusive [inhibitor, full curve, poor fit]	
Cc1cccc(N2CCN(S(=O)(=O)c3c(C)[nH]c(C)c3C(=O)N3CCCCC3)CC2)c1C	inconclusive [inhibitor, single point]	
CCOC(=O)C1=C(C)NC(C)=C(C(=O)OCC)C1C(=O)OCC(=O)NC1(C#N)CCCCC1	inconclusive [inhibitor, single point]	
O=C(NCc1ccccc1)C(=O)Nc1cccc(C(=O)O)c1	active: 4.47 µM	
Cc1cc(OCCOCCNC(C)C)cc(C)c1Cl	inconclusive [inhibitor, partial curve, poor fit]	
Cc1ccc(Nc2cc(C)nc(-n3nc(C)cc3C)n2)cc1	inconclusive [inhibitor, partial curve, poor fit]	
O=C(c1cnn2c1NC(c1ccco1)CC2C(F)(F)F)N1CCN(c2cccc(Cl)c2)CC1 (stereo not drawn)	active: 2.24 µM	
O=C(c1cc2cc(Cl)ccc2o1)N1CCCCCC1	inconclusive [inhibitor, single point]	
CN(C)S(=O)(=O)Oc1cccc(C(=O)Nc2ccc(Cl)c(Cl)c2)c1	inconclusive [inhibitor, full curve, poor fit]	
COc1cc(/C=C/c2cccc[n+]2C)ccc1OCC(=O)Nc1ccccc1C		inactive: -2.37%
O=C(CSc1ccc([N+](=O)[O-])cc1)c1ccccc1	inconclusive [inhibitor, single point]	
O=C1C=C(c2ccc(Oc3ccccc3)cc2)C[C@@H](c2ccc(F)cc2)C1	inconclusive [inhibitor, single point]	
CC(=O)Nc1cccc(-c2ccnc3c2CC(C)(C(=O)Nc2cccc(OC(F)(F)F)c2)O3)c1 (stereo not drawn)	inconclusive [inhibitor, partial curve, poor fit]	
O=C(CSc1ccccc1C(=O)N1CCCCC1)NCC1CCCCC1	inconclusive [inhibitor, single point]	

Structure (SMILES)	Potency	activity change, negative = inhibition
C=C1c2nc3ccccc3n2C=C(c2ccc(C)cc2)N1c1ccccc1	inconclusive [inhibitor, partial curve]	
COc1ccc(OC)c(/C=C/C(=O)N2C(=O)c3cccc(N)c3C2=O)c1	inconclusive [inhibitor, single point]	
Cc1cc2nc(N3CCN(C(=O)c4ccco4)CC3)sc2cc1C		inactive: -27.1%
CN(C1CCCCC1)S(=O)(=O)c1cccc2nsnc12	inconclusive [inhibitor, single point]	
COc1ccc(-c2cccc(C3CC=CC4C3C(=O)N(Cc3ccccc3)C4c3ccc(OC)c(Cl)c3)c2)cc1 (stereo not drawn)	inconclusive [inhibitor, partial curve, poor fit]	
CCCCCCn1c2c(c(=N)c3c1CCC3)CCC2	inconclusive [inhibitor, full curve]	
CCN(CC(O)Cn1c2ccccc2c2ccccc21)S(=O)(=O)c1ccc(F)cc1 (stereo not drawn)	inconclusive [inhibitor, partial curve]	
CC1CCN(C(=O)CSc2c3c(nc4ccc(Cl)cc24)CCCC3)CC1	inconclusive [inhibitor, partial curve, poor fit]	
O=C(COc1ccc(Cl)cc1Cl)NCCC1=CCCCC1	inconclusive [inhibitor, partial curve, poor fit]	
CN(C)CCN(C(=O)c1ccco1)c1nc2c(F)cc(F)cc2s1		inactive: -8.22%
O=C(COc1ccc(F)cc1)Nc1nnc(S(=O)(=O)N2CCc3ccccc32)s1	inconclusive [inhibitor, single point]	
Oc1ccc(C[C@H]2CNC(=S)N2CC2CCCN2C[C@H](Cc2ccc(O)cc2)N2C[C@H](Cc3ccc(O)cc3)N(CC3CCCCCC3)C2=S)cc1 (stereo partly drawn)	inconclusive [inhibitor, partial curve, poor fit]	
O=[N+]([O-])c1cc2no[n+]([O-])c2cc1N1CCCCC1		inactive: 0.551%
Cc1cccc(NC(=O)CSc2nc3ccccc3nc2N2CCC(C)CC2)c1	inconclusive [inhibitor, full curve, poor fit]	
COc1ccc(/C=N/NC(=O)Cc2csc(Nc3cccc(C(F)(F)F)c3)n2)cc1C	active: 7.94 µM	
CC(=O)N1CCN(S(=O)(=O)c2cccc(C(=O)Nc3ccc(OC(F)F)cc3)c2)CC1	inconclusive [inhibitor, single point]	
Cc1ccc(NC(=O)CSc2nc3ccc(Br)cc3[nH]2)c(C)c1		inactive: 5.13%
CC(C(=O)Nc1ccc(Cl)cc1)c1ncc(C(F)(F)F)cc1Cl (stereo not drawn)	inconclusive [inhibitor, single point]	
Fc1ccc(Nc2c3c(nc4nncn24)CCC3)cc1		inactive: 2.83%
O=C(Nc1nnc(-c2ccc3c(c2)CCCC3)o1)c1ccc(Cl)cc1Cl	inconclusive [inhibitor, single point]	
COc1cccc2c1[C@@H]1CN(CCCCn3c(=O)[nH]c4c(sc5ncc(-c6ccccc6)nc54)c3=O)C[C@@H]1CO2	active: 10 µM	

Structure (SMILES)	Potency	activity change, negative = inhibition
CC1=NN(C(=O)c2ccc(Br)cc2)C(O)(C(F)(F)OC(F)(F)F)C1 (stereo not drawn)	inconclusive [inhibitor, full curve, poor fit]	
O=C(CNC(=O)/C(=C/c1ccccc1)NC(=O)c1ccc(Br)cc1)OCc1ccccc1	inconclusive [inhibitor, single point]	
CCOC(=O)/C(=N/Nc1ccc(OC)cc1)N1CCCc2ccccc21	active: 4.47 µM	
Cc1nc2c(c(C)nn2-c2ccccc2)c(C)c1CCC(=O)Nc1ccc(F)cc1		inactive: -6.12%
O=C(CCNC(=O)c1ccc(Cl)cc1)Nc1cccc(S(=O)(=O)N2CCCCCC2)c1	active: 12.6 µM	
COc1cc(Nc2nc(SCc3cccc(Cl)c3)nc3ccccc23)cc(OC)c1	inconclusive [inhibitor, partial curve, poor fit]	
Cc1cc(C(=O)N/N=C/c2ccc3c(c2)OCO3)c2ccccc2n1	inconclusive [inhibitor, full curve, poor fit]	
Cc1ccc2nc(-c3ccc(NC(=O)C(F)(F)F)cc3)sc2c1	inconclusive [inhibitor, full curve, poor fit]	
CCCSC1=C(C#N)C2(CCCCC2)C(C#N)=C(N)N1	inconclusive [inhibitor, partial curve, poor fit]	
CC(C(=O)Nc1ccc(Br)cc1)N(C)CC(=O)NCc1ccco1 (stereo not drawn)	inconclusive [inhibitor, single point]	
CC(C)(C)C(=O)N1CCN(c2ncnc3scc(-c4ccccc4)c23)CC1	inconclusive [inhibitor, single point]	
CCCCCCCCN1C(=O)[C@H](CC(=O)NCc2ccc(OC)c(OC)c2)C[C@@]2(C(=O)OC)CCCCC=C12	inconclusive [inhibitor, partial curve]	
Cc1ccc(S(=O)(=O)N(C)C(C)CCc2ccco2)cc1 (stereo not drawn)	inconclusive [inhibitor, single point]	
CS(=O)(=O)N(CC(=O)NC1CCCCCC1)Cc1ccccc1	inconclusive [inhibitor, single point]	
CCOc1ccc(C2C(C#N)=C(N)Oc3cc(C)n(Cc4ccco4)c(=O)c32)cc1OC (stereo not drawn)		inactive: 0.224%
COc1ccc(C2(C)NC(=O)N(CC3CCCCC3)C2=O)cc1 (stereo not drawn)	inconclusive [inhibitor, single point]	
Cc1ccc(OCc2cc(C(=O)NC(C)Cc3cnccn3)no2)cc1C (stereo not drawn)		inactive: -29.9%
CCO/C=C1/C(=O)N(CC)c2ccccc21	inconclusive [inhibitor, single point]	
Cc1cccc(/C=N/Nc2cc(N3CCOCC3)nc(N3CCOCC3)n2)c1	inconclusive [inhibitor, full curve, poor fit]	
Cc1c(CCCl)c(Cl)n2c(nc3ccccc32)c1C#N	inconclusive [inhibitor, partial curve, poor fit]	
O=c1c2ccccc2nc(/C=C/c2ccc(O)cc2)n1CCc1ccccc1	inconclusive [inhibitor, single point]	
